Data from PubChem BioAssay AID602179 (National Center for Advancing Translational Sciences (NCATS), 2012).
About 360 (0.092%) of roughly 390,000 compounds were called active. Inconclusive results, whose numbers are uncertain, are shown with a selection of clear calls. The call rests on the fitted dose curve; in most records, active means well fitted inhibition curve with a large enough effect; inconclusive means small, poorly fitted or top-dose-only effect; inactive means no such curve, though single readings can be large or run the other way. Potencies beside an inconclusive call are fits to weak or partial responses and may not hold up.

Each compound was assayed against Isocitrate dehydrogenase [NADP] cytoplasmic (Homo sapiens) (UniProt O75874) (assay: qHTS for Inhibitors of mutant isocitrate dehydrogenase 1 (IDH1): qHTS). Conditions: IDH1-R132H enzyme, NADPH consumption, diaphorase/resazurin fluorescence; series mostly up to 76.6 µM.
Procedure, shortened: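 IDH1-R132H (0.5 ug/mL) preincubated 30 min with compound, then NADPH (0.016 mM) and alpha-KG (2 mM) added; 80 min at RT, pH 7.5. Remaining NADPH coupled via diaphorase/resazurin to fluorescence (540/590 nm); concentration-response curves normalized to no-enzyme control.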
Further: nearly all actives have a fitted effect of over 65% in size.
Potency means the concentration at half of the fitted maximal effect; tags describe the fitted curve by direction and shape.

Q: Which Potency does the source give for `CCOc1ccc2nc(N3CCCC(C(=O)Nc4cc(C)ccc4C)C3)sc2c1` (stereo not drawn) here?
A: inconclusive: 50.1 µM [inhibitor, single point]

Q: How did the Potency turn out when `Cc1ccc(C(=O)NCC(c2ccco2)N2CCCCC2)s1` (stereo not drawn) was run?
A: inactive

Q: With `CS(=O)(=O)c1ccc(N)c(SSc2cc(S(C)(=O)=O)ccc2N)c1` as the compound, how does the Potency read?
A: inconclusive: 63.1 µM [inhibitor, single point]

Q: `CC(C)c1nc(N2CCOCC2)c(C#N)c2c1CCCC2` was tested. Which Potency did it give?
A: inconclusive: 41.4 µM [inhibitor, partial curve]

Q: For `CC1(C)CC2CC(C)(CN2C(=O)Cc2ccccc2)C1` (stereo not drawn), which Potency is on record?
A: inactive

Q: For `O=C(NC1CCCCC1)C(c1cccs1)N(C(=O)c1ccccn1)c1ccccc1` (stereo not drawn), which Potency is on record?
A: inconclusive: 52.1 µM [inhibitor, partial curve]

Q: With `COc1ccc(/C=C/C(=O)Nc2nc(-c3cccs3)ns2)cc1OC` as the compound, how does the Potency read?
A: inactive

Q: `C=CCNCCOCCOc1ccc(Cl)cc1C(C)(C)C` was tested. Which Potency did it give?
A: inactive

Q: `COc1ccc(OC)c(-n2c3c(cc(-c4nc(-c5ccc(Cl)cc5)cs4)c2=O)C(=O)CC(C)(C)C3)c1` was tested. Which Potency did it give?
A: active: 1.26 µM

Q: How did the Potency turn out when `CN1CC=C2C(C#N)=C(N)C(C#N)(C#N)C(c3cccc(Cl)c3Cl)C2C1` (stereo not drawn) was run?
A: inconclusive: 46.5 µM [inhibitor, partial curve]

Q: Which Potency does the source give for `Cc1ccc(-n2c(=S)sc3c(=O)n(-c4ccc(F)cc4)c(SCC(=O)O)nc32)cc1C` here?
A: inconclusive: 20.7 µM [inhibitor, full curve]

Q: With `O=c1c2ccccc2sc2ccc(C#CC3(O)CCCCC3)cc12` as the compound, how does the Potency read?
A: inactive

Q: How did the Potency turn out when `O=C(NC1CCCCC1)C(c1ccccc1)N(Cc1ccco1)C(=O)Cn1cnc2ccccc21` (stereo not drawn) was run?
A: active: 11.7 µM

Q: Which Potency does the source give for `CC(C)S(=O)(=O)C1=NSC2=NC(=O)/C(=C\c3ccc(OC(=O)c4ccco4)cc3)C(=N)N21` here?
A: inconclusive: 52.1 µM [inhibitor, single point]

Q: How did the Potency turn out when `COc1ccccc1NC(=O)CCc1c(C)nc2c(-c3ccc(F)cc3)c(C)nn2c1C` was run?
A: inconclusive: 58.5 µM [inhibitor, single point]

Q: How did the Potency turn out when `O=C1CCSC2(C(=O)N(Cc3ccc(F)cc3)c3ccccc32)N1c1ccc(Cl)cc1` (stereo not drawn) was run?
A: inconclusive: 14.1 µM [inhibitor, partial curve, poor fit]

Q: Which Potency does the source give for `Cc1ccc2nc(-c3ccncc3)cc(-c3ccccc3)c2c1` here?
A: inconclusive: 50.1 µM [inhibitor, single point]

Q: `Cc1cccc(NC(=O)CSc2nc3n[nH]c(C)c3c(=N)n2-c2cccc(Cl)c2)c1` was tested. Which Potency did it give?
A: inconclusive: 50.1 µM [inhibitor, partial curve, poor fit]

Q: `O=C(O)c1ccccc1NS(=O)(=O)c1cccc(NS(=O)(=O)c2cc(Br)ccc2Br)c1` was tested. Which Potency did it give?
A: inconclusive: 63.1 µM [inhibitor, single point]

Q: How did the Potency turn out when `Cc1ccc(SSc2cc(C)ccc2N)c(N)c1` was run?
A: inconclusive: 63.1 µM [inhibitor, single point]

Q: For `COc1cc(C2(c3ccc(O)c(OC)c3)C(=O)Nc3c(C)cc(Br)cc32)ccc1O`, which Potency is on record?
A: inconclusive: 58.5 µM [inhibitor, single point]

Q: `O=c1c2sc3nc(N4CCOCC4)c4c(c3c2ncn1-c1ccccc1)CCCC4` was tested. Which Potency did it give?
A: inconclusive: 44.7 µM [inhibitor, partial curve, poor fit]

Q: `COc1ccc(NC(=O)c2c(NC(=O)COc3ccccc3)sc3c2CCCCC3)cc1` was tested. Which Potency did it give?
A: inconclusive: 56.2 µM [inhibitor, partial curve, poor fit]

Q: `Cc1nc(-c2c(C(F)(F)F)noc2-c2ccc(O)cc2O)cs1` was tested. Which Potency did it give?
A: inactive

Q: For `Cc1cccc(NC(=O)N2CCC(N3CCN(Cc4ccccc4)C(=O)C3=O)CC2)c1C`, which Potency is on record?
A: inactive

Q: With `CCCC1N=C2c3ccccc3N=C(SCC(=O)NCCc3ccc(Cl)cc3)N2C1=O` (stereo not drawn) as the compound, how does the Potency read?
A: inactive

Q: For `COC(=O)C1=CN(Cc2ccc(OC)c(OC)c2)C=C(C(=O)OC)C1c1cccc(F)c1`, which Potency is on record?
A: inconclusive: 44.7 µM [inhibitor, partial curve, poor fit]

Q: `CC(=O)N1CCc2c(sc3c2c(=O)n(-c2ccc(C)cc2)c(=O)n3Cc2ccccc2C)C1` was tested. Which Potency did it give?
A: inconclusive: 44.7 µM [inhibitor, partial curve, poor fit]

Q: For `Cc1ccc(Nc2cc(C)c(C#N)c3nc4ccccc4n23)c(C)c1`, which Potency is on record?
A: active: 39.8 µM

Q: `Cn1cc(S(=O)(=O)c2cccc(Cl)c2)c(=O)c2cc(F)c(N3CCCCC3)cc21` was tested. Which Potency did it give?
A: inconclusive: 17.8 µM [inhibitor, full curve]

Q: `CCN(CC)S(=O)(=O)c1ccc(NC2c3ncccc3C(=O)N2Cc2ccccc2)cc1` (stereo not drawn) was tested. Which Potency did it give?
A: inconclusive: 58.5 µM [inhibitor, single point]

Q: Which Potency does the source give for `CC1(C)CC(=O)C2=C(C1)c1c(ccc3ncccc13)NC2c1cccs1` (stereo not drawn) here?
A: inconclusive: 58.5 µM [inhibitor, single point]

Q: How did the Potency turn out when `COc1ccc(C)cc1-n1c(-c2ccc(Cl)cc2)cc2c1CC(C)(C)CC2=O` was run?
A: inconclusive: 10 µM [inhibitor, partial curve]

Q: With `Cc1ccccc1N(C(=O)c1snc(C(N)=O)c1N)C(C(=O)NC1CCCC1)c1ccco1` (stereo not drawn) as the compound, how does the Potency read?
A: inconclusive: 46.5 µM [inhibitor, partial curve]

Q: For `CCn1c(=O)c2cc(C(=O)N(C)c3cc(C)ccc3OC)sc2c2ccccc21`, which Potency is on record?
A: inconclusive: 52.1 µM [inhibitor, partial curve]

Q: How did the Potency turn out when `Cn1c(N)c(C(=O)COC(=O)CSc2cccc3cccc(Cl)c23)c(=O)n(C)c1=O` was run?
A: inactive

Q: Which Potency does the source give for `Cn1c(=O)c2c(-c3ccccc3)n(CCCO)cc2n(C)c1=O` here?
A: inconclusive: 50.1 µM [inhibitor, single point]

Q: Which Potency does the source give for `COc1ccc(-c2nn3c(-c4ccccc4C)nnc3c3ccccc23)cc1` here?
A: inconclusive: 39.8 µM [inhibitor, partial curve]

Q: Which Potency does the source give for `Nc1c(C(=O)NCc2ccco2)c2nc3ccccc3nc2n1CCc1ccc(F)cc1` here?
A: inconclusive: 46.5 µM [inhibitor, partial curve, poor fit]

Q: With `COc1ccc(C)cc1N(C(=O)c1snc(C(N)=O)c1N)C(C(=O)NC1CCCC1)c1ccc(F)cc1` (stereo not drawn) as the compound, how does the Potency read?
A: inconclusive: 46.5 µM [inhibitor, partial curve]

Q: With `CNC(=O)/C(C#N)=C/c1c(N(Cc2ccccc2)Cc2ccccc2)nc2c(C)cccn2c1=O` as the compound, how does the Potency read?
A: active: 52.1 µM

Q: `CC[C@]12c3[nH]c4cc(CCC(=O)N(C)C)ccc4c3CCN1C(=O)[C@@H](CC(=O)NC/C=C(\C)CCC=C(C)C)C[C@@H]2C(=O)N1CCN(C(=O)c2ccco2)CC1` was tested. Which Potency did it give?
A: inconclusive: 39.8 µM [inhibitor, partial curve]

Q: How did the Potency turn out when `COc1ccc(-c2nc(SCCOc3ccccc3Cl)n3[nH]c(=O)cc3n2)cc1` was run?
A: inconclusive: 50.1 µM [inhibitor, single point]

Q: `COc1ccc(Cl)cc1NC(=O)N1CCN(c2ccccc2OC)CC1` was tested. Which Potency did it give?
A: inactive

Q: How did the Potency turn out when `COc1cc(-c2nc3nc(C)cc(C)n3c2Nc2ccc(Cl)cc2)ccc1O` was run?
A: inconclusive: 44.7 µM [inhibitor, single point]

Q: For `CCOc1ccccc1N(C(=O)c1snc(C(N)=O)c1N)C(C(=O)NC1CCCC1)c1ccco1` (stereo not drawn), which Potency is on record?
A: inconclusive: 46.5 µM [inhibitor, partial curve]

Q: How did the Potency turn out when `CCCCOC(=O)CSC1=C(C#N)C(c2ccccc2OC)C(C#N)C(=O)N1` (stereo not drawn) was run?
A: inconclusive: 20.7 µM [inhibitor, partial curve]

Q: `CCN(CC)S(=O)(=O)c1ccc2nc(NC(=O)c3ccco3)sc2c1` was tested. Which Potency did it give?
A: inactive

Q: With `O=C1ON=C(c2ccccc2)/C1=C/c1ccc(OS(=O)(=O)c2ccccc2)cc1` as the compound, how does the Potency read?
A: inactive

Q: With `COc1ccc(S(=O)(=O)N2CCC(n3cnc4cc(C(F)(F)F)ccc43)CC2)cc1` as the compound, how does the Potency read?
A: inactive

Q: For `Cc1ccnc(NS(=O)(=O)c2ccc(NS(=O)(=O)c3ccc(Br)cc3)cc2)n1`, which Potency is on record?
A: inconclusive: 58.5 µM [inhibitor, single point]

Q: With `O=C(Nc1cccc(F)c1)c1ccc(S(=O)(=O)NCC2CCCO2)cc1` (stereo not drawn) as the compound, how does the Potency read?
A: inactive

Q: Which Potency does the source give for `O=C1NC(c2ccccc2)=C(c2nc3ccccc3s2)C(c2ccc(O)cc2)N1` (stereo not drawn) here?
A: inconclusive: 52.1 µM [inhibitor, single point]

Q: With `CCc1ccc(NC(=O)CN2CCSc3ccc(S(=O)(=O)N4CCCC4)cc32)cc1` as the compound, how does the Potency read?
A: inconclusive: 44.7 µM [inhibitor, partial curve, poor fit]

Q: `COc1cccc(C2=C(C(C)=O)Sc3nnc(C4CCCCC4)n3N2C(C)=O)c1` was tested. Which Potency did it give?
A: inconclusive: 39.8 µM [inhibitor, partial curve, poor fit]

Q: With `CCN(CC)C(=O)CN(C#N)c1nc(OC)nc(N(C)C)n1` as the compound, how does the Potency read?
A: inconclusive: 23.3 µM [inhibitor, single point]

Q: `CC1(C)CC2CC(C)(CN2c2ncnc3ccc(Br)cc23)C1` (stereo not drawn) was tested. Which Potency did it give?
A: inconclusive: 58.5 µM [inhibitor, single point]

Q: `O=C(c1ccc2c(c1)N(Cc1ccccc1Cl)C(=O)c1ccccc1S2)N1CCCC1` was tested. Which Potency did it give?
A: inconclusive: 50.1 µM [inhibitor, single point]

Q: With `O=C(O)c1cccc(CN2C(=O)S/C(=C/c3ccccc3[N+](=O)[O-])C2=O)c1` as the compound, how does the Potency read?
A: inconclusive: 58.5 µM [inhibitor, single point]

Q: How did the Potency turn out when `CCc1ccc(NC(=O)CC2C(=O)N(c3ccc(OC)cc3)C(=O)N2Cc2ccc(OC)cc2)cc1` (stereo not drawn) was run?
A: inconclusive: 56.2 µM [inhibitor, partial curve, poor fit]

Q: With `Cc1cc(NC(=O)CCCC(=O)N(c2ccccc2)C(C(=O)NC2CCCCC2)c2cccs2)no1` (stereo not drawn) as the compound, how does the Potency read?
A: inconclusive: 11.7 µM [inhibitor, full curve]

Q: `CCCn1c(C)cc(C(=O)COc2ccc(C)nc2[N+](=O)[O-])c1C` was tested. Which Potency did it give?
A: inactive

Q: For `Cc1cc(S(=O)(=O)NC2CCCCC2)ccc1OCC(=O)N1CCOCC1`, which Potency is on record?
A: inactive
